This is an account of results in the supplement of paper PMC12462457.

For this test, the system named is OVCAR8. The test is described as follows: cell count relative to DMSO vehicle (fold change); OVCAR8 is a high-grade serous ovarian cancer line and CX-5461 an RNA polymerase I inhibitor; higher = more surviving senescent cells (less killing). To be noted: senescence inducer: CX-5461 3 µM 48 h, then 6 d recovery (CX senescent), exposure time 24 h.

The structures appear in SMILES notation. Structures can show the parent of a compound that is named as a salt. ± gives the standard deviation of the averaged measurements. The list shows a part of the results.

For `COc1ccc(-c2cc(=O)c3c(O)c(OC)c(OC)c(OC)c3o2)cc1`, the cell count was determined as 1.2 ± 0.12 (compound dose 1 µM) and 1.08 ± 0.16 (compound dose 5 µM).

Take `CCCCCCCC/C=C/CCCCCCCC(=O)OC[C@H]1O[C@@H](n2ccc(N)nc2=O)C(F)(F)[C@@H]1O` [Gemcitabine (elaidate)]: the cell count came to 1.2 ± 0.3 (compound dose 1 µM) and 1.09 ± 0.24 (compound dose 5 µM).

Take `Cc1cc(/C=C2\CC/C(=C\c3cc(C)c(O)c(C)c3)C2=O)cc(C)c1O` [Pentagamavunon-1]: the cell count by setting is: (compound dose 1 µM) 1.09 ± 0.14; (compound dose 5 µM) 1.05 ± 0.029.

Take `CCCOc1ccc2[nH]c(NC(=O)OC)nc2c1`: the cell count stood at 1.16 ± 0.035 (compound dose 1 µM) and 1.159 ± 0.0021 (compound dose 5 µM).

As to `CN1CCN(c2ccc3nc(-c4ccc5nc(-c6cccc(OCCCC(=O)NCCCN=[N+]=[N-])c6)[nH]c5c4)[nH]c3c2)CC1` [Targapremir-210], the cell count stood at 1.08 ± 0.31 (compound dose 1 µM) and 1.04 ± 0.27 (compound dose 5 µM).

For the compound `O=C(c1ccc(F)c(F)c1Nc1ccc(I)cc1F)N1CC(O)([C@@H]2CCCCN2)C1` [Cobimetinib], the cell count by setting is: (compound dose 1 µM) 1.15 ± 0.064; (compound dose 5 µM) 1.15 ± 0.049.

On to `CCCCS(=N)(=O)CCC(N)C(=O)O` (stereo not drawn), for which the cell count by setting is: (compound dose 1 µM) 1.16 ± 0.29; (compound dose 5 µM) 0.912 ± 0.0057.

For the compound `C=CC(=O)N1CCC[C@H](n2c(=O)n(-c3ccc(Oc4ccccc4)cc3)c3c(N)ncnc32)C1` [ONO-4059 (analog)], the cell count reads like this: (compound dose 1 µM) 1.07 ± 0.018; (compound dose 5 µM) 0.957 ± 0.076.

Regarding `COc1cc(O)c(C(=O)/C=C/c2ccccc2)c(OC)c1` [Flavokawain B], the cell count by setting is: (compound dose 1 µM) 1.18 ± 0.092; (compound dose 5 µM) 1.2 ± 0.19.

Turning to `CCCc1nn(C)c2c(=O)[nH]c(-c3cc(S(=O)(=O)N4CCN(C)CC4)ccc3OCC)nc12`, the cell count runs as follows: (compound dose 1 µM) 1.09 ± 0.019; (compound dose 5 µM) 1.21 ± 0.093.

Consider `N#CC[C@H](C1CCCC1)n1cc(-c2ncnc3[nH]ccc23)cn1` [Ruxolitinib], for which the cell count reads like this: (compound dose 1 µM) 0.958 ± 0.25; (compound dose 5 µM) 0.618 ± 0.16.

For `COc1cc(CNC(=O)CCCCCCC(C)C)ccc1O` [Dihydrocapsaicin], the cell count came to 1.09 ± 0.12 (compound dose 1 µM) and 0.971 ± 0.11 (compound dose 5 µM).

In turn, `O=C1O[C@H]([C@@H](O)CO)C(O)=C1O` [L-Ascorbic acid] showed a cell count (compound dose 1 µM) of 1.1 ± 0.44 and a cell count (compound dose 5 µM) of 1.11 ± 0.22.

Take `Clc1ccc(C(c2ccccc2Cl)C(Cl)Cl)cc1` (stereo not drawn): the cell count by setting is: (compound dose 1 µM) 1.16 ± 0.076; (compound dose 5 µM) 1.05 ± 0.025.

Turning to `O=C(O)C1(c2ccc(-c3ccc(Cl)c(Cl)c3)c(F)c2)CC1` [Itanapraced], the cell count by setting is: (compound dose 1 µM) 1.03 ± 0.26; (compound dose 5 µM) 1.08 ± 0.059.

In the case of `CNCc1ccc(C)c(NC(=O)c2ccc(Nc3nc(-c4ccccc4)c4ccccc4n3)cc2)c1`, the cell count reads like this: (compound dose 1 µM) 1.02 ± 0.11; (compound dose 5 µM) 1.07 ± 0.03.

For the compound `CCCc1cc2c(N3CCN(C4=NCC(C)(C)S4)CC3)ncnc2s1` [MI-2 (Menin-MLL Inhibitor)], the cell count is, setting by setting: (compound dose 1 µM) 1.16 ± 0.16; (compound dose 5 µM) 0.989 ± 0.059.

In the case of `CCCCN1CCCC[C@H]1C(=O)Nc1c(C)cccc1C` [Levobupivacaine (hydrochloride)], the cell count (compound dose 1 µM) stood at 1.04 ± 0.1 and the cell count (compound dose 5 µM) came to 0.979 ± 0.19.

With `Fc1ccc(Nc2nc(Nc3ccc(-c4nc5ccccc5[nH]4)cc3)nc(N3CCOCC3)n2)cc1`, the cell count was determined as 0.867 ± 0.14 (compound dose 1 µM) and 0.826 ± 0.11 (compound dose 5 µM).

Turning to `O=C(Nc1ccc(CN2CCOCC2)cc1)c1ccc(-c2cccc(Cl)c2)o1`, the cell count was 0.969 ± 0.036 (compound dose 1 µM) and 1.02 ± 0.033 (compound dose 5 µM).

Regarding `Cc1cc(F)c(C(=O)Nc2cccc(-c3nncn3C(C)C)n2)cc1-n1cnc(C2CC2)c1` [Selonsertib], the cell count was found to be 1.04 ± 0.17 (compound dose 1 µM) and 0.843 ± 0.2 (compound dose 5 µM).

As for `CNC(=O)COc1cc2cc(Nc3nc(N4CCC(C(=O)N(C)C)CC4)ncc3Cl)cc(OC)c2n(C)c1=O`, the cell count came out at 1.09 ± 0.22 (compound dose 1 µM) and 1.1 ± 0.16 (compound dose 5 µM).

`COc1cc(Nc2ncc3c(n2)-c2ccc(Cl)cc2C(c2c(F)cccc2OC)=NC3)ccc1C(=O)O` [Alisertib (MLN8237)]: the cell count reads like this: (compound dose 1 µM) 0.939 ± 0.059; (compound dose 5 µM) 0.739 ± 0.079.

For `O=c1cc(N2CCOCC2)oc2c(-c3ccccc3)cccc12`, the cell count by setting is: (compound dose 1 µM) 1.04 ± 0.021; (compound dose 5 µM) 1.26 ± 0.076.

Take `COc1ccc2cc1Oc1ccc(cc1)C[C@H]1c3cc(c(OC)cc3CCN1C)Oc1c(O)c(OC)cc3c1[C@H](C2)N(C)CC3` [Fangchinoline]: the cell count worked out at 1.04 ± 0.11 (compound dose 1 µM) and 1.0895 ± 0.00071 (compound dose 5 µM).

As for `Nc1cc(C(F)(F)F)c(-c2cc(N3CCOCC3)nc(N3CCOCC3)n2)cn1` [Buparlisib (BKM120, NVP-BKM120)], the cell count runs as follows: (compound dose 1 µM) 1.2 ± 0.18; (compound dose 5 µM) 1.27 ± 0.33.

As for `O=C(O)c1cc(=O)c2ccccc2[nH]1`, the cell count is, setting by setting: (compound dose 1 µM) 1.15 ± 0.095; (compound dose 5 µM) 1.233 ± 0.0014.

For `O=C(O)c1cc(=O)c2ccccc2[nH]1` [Kynurenic acid (sodium)], the cell count by setting is: (compound dose 1 µM) 1.2 ± 0.16; (compound dose 5 µM) 1.14 ± 0.14.

With `Clc1cccc(CN=C2Nc3ccccc3NC23CCNCC3)c1` [Liproxstatin-1], the cell count runs as follows: (compound dose 1 µM) 1.1 ± 0.14; (compound dose 5 µM) 1.04 ± 0.044.

In the case of `C[C@H]1[C@H](C)CC[C@]2(C(=O)O)CC[C@]3(C)C(=CC[C@@H]4[C@@]5(C)C[C@@H](O)[C@H](O)[C@@](C)(CO)[C@@H]5[C@H](O)C[C@]43C)[C@H]12` [Madecassic acid], the cell count by setting is: (compound dose 1 µM) 1.18 ± 0.15; (compound dose 5 µM) 1.25 ± 0.2.

For the compound `CNc1ccc([N+](=O)[O-])c(Nc2ccc3[nH]ncc3c2)n1`, the cell count is, setting by setting: (compound dose 1 µM) 0.59 ± 0.013; (compound dose 5 µM) 0.27 ± 0.023.

Consider `O=C(O)CCC(=O)c1ccc(-c2ccccc2)cc1`, for which the cell count is 1.09 ± 0.11 (compound dose 1 µM) and 1.14 ± 0.14 (compound dose 5 µM).

For `CCOC(=O)c1ccc(NC2CCCCC2)c(N)c1` [Ferrostatin-1], the cell count runs as follows: (compound dose 1 µM) 0.966 ± 0.069; (compound dose 5 µM) 0.852 ± 0.12.

Consider `C[C@@H]1O[C@@H](O[C@H]2[C@H](O[C@H]3CC[C@@]4(C)[C@@H](CC[C@]5(C)[C@@H]4CC=C4[C@@H]6CC(C)(C)CC[C@]6(C(=O)O)CC[C@]45C)[C@]3(C)CO)OC[C@H](O)[C@@H]2O)[C@H](O)[C@H](O)[C@H]1O` [alpha-Hederin], for which the cell count worked out at 1.24 ± 0.23 (compound dose 1 µM) and 1.22 ± 0.14 (compound dose 5 µM).
